Test results from the RNAGym collection of RNA variant scans (doi:10.1093/nar/gkz1192).
Read counts are not given, so values of variants with three or more changes are uncertain.

B1: CPEB3 Ribozyme (parent)
chain: UAACAGGGGGCCACAGCAGAAGCGUUCACGUCGCAGCCCCUGUCAGAUUCUGGUGAAUCUGCGAAUUCUGCUGUAUAUCUC

Variants of: B1
Assay: self-cleavage, relative activity (ratio to wild type); higher = more cleavage; in vitro, sequencing
Summary of the method: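 Barcoded CPEB3 ribozyme mutants, produced by rounds of error-prone PCR, self-cleaved while being transcribed with T7 RNA polymerase for 5 hours at 37°C and during a subsequent 15 min DNase I step before EDTA was added. Sequencing of template-switched cDNA on Illumina gave cleaved and total reads, and DNA sequencing assigned barcodes to variants. Each variant's relative activity is its cleaved/total read fraction divided by the unmutated ribozyme's fraction, averaged across three batches. A variant needed a minimum of 5 reads.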

Variant | self-cleavage
A5U U25A U26A U72C | 0.11
A5U U43C U74C U78C | 0.36
G6A G19A U25C U31A U41C U51A | 0.05
G6A C37U A57U A65G | 0.13
A5U U41C U69C | 0.61
A5U U43C A64U U72C U76C | 0.19
G6U A21C U48C | 0.05
G6A C12U A21G U43C A64G U76A U78C | 0.07
G6A C37U U49C G53U U80C | 0.19
G7A A20G G52A A57G A64G | 0.07
A5U U41C A57G U78C | 0.7
A5U U26A A35G | 1.27
G6A U26A U54C | 0.4
G7A A21G A45C U80C | 0.28
G6A U26C U43C A47U G53U U54C | 0.11
G6A U72C U76C | 0.67
G6C A21G U43C A57G A75U U80C | 0.06
G6U A18U U26C A35U U48C C71U | 0.05
A5U U26C A45G U60G A65G | 0.12
G7U A18G A21U C44U A56G U60G U67C | 0.08
G6A U25C A35U U43C U49C | 0.27
G7A A35G U41G U51C U69C | 0.05
G6U A35U U43C G61C | 0.16
G7A C39U U54A U58C U60C U78A | 0.05

Variant | self-cleavage
G6U U25C U51C G52U U60A U69C U72A | 0
G7A A18U C23A A56G A64U U69C A77U | 0.05
G6C G16C A20G U25C U49C A56U | 0.27
G6A A20G U25C U80C | 0.09
G7A A20G U25C A35U | 0.03
G7C C23U A57G U60C | 0.05
G6U G7A A13G U51C | 0.37
G6A A45G U54C A56G A57U | 0.04
G7C A35G U43A A47C U67A U80A | 0.05
G7C A15G U51G A56U | 0.06
A5U U31C U78C | 0.99
G7A G55U U72C | 0.28
A5U U54A A65U U72C U80C | 0.38
G6A A13U A15G U49A A64U | 0.04
G6A U43A A64G U66A U74C | 0.04
G7A G10C U25A A64U | 0.06
A5U U26A G52A | 1.03
G6A A28U U49C A64G | 0.07
G6A A15U U78C | 0.31
A5U U31C U67C U80C | 0.22
G7C A28G A45U U74A | 0.27
G7A U58A A64U U66C U80C | 0.09
A5U U41C U54C A65G C81U | 0.41
A5U U51A U72A | 0.92

Variant | self-cleavage
G7A C32U A47G | 0.42
G7C U25C U51C U76A U80C | 0.25
A5U U31C U67A | 0.35
G6U A20U U25C U72C | 0.54
G7A A20G G46U U54A U69C A77G | 0.05
G7A A18G U26A A35G U48C | 0.26
G6U A15G A35U U72A | 0.06
G6A C14A A20U C34G | 0.06
G6A A15U G30U U41A A56G U76A | 0.24
G7A A15U G36U U51C | 0.06
G6A A20G C39A U60C U67C | 0.06
A5U U25C A28U A35U A45G C62U U72C | 0.04
G6U U48C A64G | 0.19
A5U U41C A56G A57G | 0.36
G7U A13G A15G U69C U80C | 0.22
G6A A20G A28G U43C A65G U66C | 0.05
G7C U31C U69C | 0.06
G7A U43A C62G U74A U80C C81G | 0.13
A5U U41A A45U A64U C68U | 0.18
G6A C11U U25C A64G U72C U78C | 0.05
G6A A18U G24U U72A | 0.11
G6C A13U A28U C39A A56G | 0.05
G7A A20U U41C A45U | 0.05
G6A G16A A21G C34A U69A U72C | 0.06

Variant | self-cleavage
A5U U31C A35G U72C | 1.17
G7A G24A U25C G42A U74A | 0.06
G7U A15G A47U U69A U80C | 0.02
G6C A35U U41C U67C | 0.14
A5U U48C G52A A75G | 0.7
G6A U26C A45C U48C A56G U78C | 0.07
G6A U48C A75U | 0.08
G6U A18G A35U U49C | 0
A5U U26A A47U A75G | 0.17
G6U A15U A35G U51A U60A A75C | 0.17
A5U U26C A77G | 0.83
G6U A13G A28C U72C | 0.08
G6U A57G C62U | 0.16
G6C U26A A77G | 0.08
A5U U43G U54C | 0.41
G7A U49C U51A A75G | 0.07
G6C A35G U41A U72A | 0.15
G6A A15G U41C U43C U74A U76C | 0.12
G6A C11U A13G A15G A21G | 0.07
A5U U25C U26A G55U | 0.5
G6U A15U U31C A47G | 0.08
G6A C11G A15G U51C | 0.23
G6A U25C A65G U80A | 0.2
G6C A15G U31C U43A | 0.04

Variant | self-cleavage
G7C G52C U67C U78C | 0.18
G6A A20U C40G U69A | 0.17
A5U U43A U66C | 0.22
G6U A35G C44U A57G | 0.04
G7C A21G U26C U41C A65G U66A U69A | 0.28
G7A A15U A18G C23G U54C U72C | 0.04
G6U U43C A77G | 0.2
G6U A18G A21G U41C U78C | 0.08
G6U U31A A56U | 0.25
G6A C17G A35U U49A U72G U76C | 0.06
A5U G33A U67A U69C | 0.29
G7A A15U U31C U41A U43C A56U | 0.06
G6A G10A A28G U49C U69A U80C | 0.05
A5U U51C A56G U78C | 0.73
G6U A20G G33A A56U U78A | 0.09
G6A U41C A75G | 0.4
A5U U41A U43C A47U U49C U76C | 0.09
G7A A18G G24U U25A G55A U67A A77G | 0.03
G6A A20G U51A | 0.32
G6C U41A A57G | 0.1
G6U A13C G16C U69A | 0.21
G7A A15U U26A U54G | 0.07
G6A U25C U54C | 0.28
A5U G52U U54C | 1.19

Variant | self-cleavage
G6A C40A U72C U74A | 0.16
G7C A13G A20G U25C G61A | 0.1
G7C A28G C34A U80C | 0.08
G7A A21G U25C C29U C40U U43C U51C | 0.04
G6A U26C U51C U69C A75G | 0.06
A5U U25A U80A | 0.34
A5U U43A A56G U58C | 0.27
G7C U26A U43C U49C U67C | 0.06
G7A U25C G30U U76A | 0.34
A5U U25C U49C | 0.36
G6A A28C U54C A64U A77G | 0.05
G7C A35C G36A A45U U49C | 0.07
A5U U26C G33U | 0.1
G6A G16C A28G U76C | 0.07
G6A U25C U54C U72C | 0.25
G6A A15C U51C | 0.38
A5U U26C U78C | 0.54
A5U U43A A75U | 1.19
G7A A21G U26C A57U | 0.09
G7A A15G U67A U76C | 0.05
G6A U41A A45U U51A U58G | 0.24
G6A C37U U74C U78C | 0.17
G6A A13U A21G U67C G70A U80A | 0.08
G6A U25C A56G U60C | 0.3

Variant | self-cleavage
G6U G9U U49C A64G G73A A75U | 0.27
A5U U26A C79A U80A | 1.22
G7A G36A A47G U66C A75U | 0.06
A5U G30U U49C | 0.1
G7C U31A U51C A56U U58C | 0.06
G7C A13U C29U A35G U54A | 0.08
G7A A15G A18G U25C A45U A56U | 0.31
G6U A18G U31G A45U A64G | 0.16
G6A A15G U26C U41A A56G U60A | 0.03
G7C A13G U60A U74C | 0.37
G7A A56G U72C U80A | 0.06
G6A U43A A45G G61C | 0.17
G6U A28G U31C U72C U76C | 0.09
G6A A20U U25C U58C G70C | 0.12
A5U U43A A56G U80C | 0.91
G6A U25C C27A U49A U66C U67C U72C | 0.04
A5U U31A U41C A77U | 0.52
G6U C17U A20G U25C A47G | 0.34
G6A U26G G42U U78C | 0.04
G6A C11G U54C | 1.23
G6A C27A A75G | 0.2
G7A U26C U48C A56G | 0.04
G6A U25A A56G | 0.17
